Measured values taken from publication PMC12089419.
Residue numbers refer to the chain shown, from its start. Numbers in names are those of the source. Results are given in words; binding and its absence hold for the method and conditions named. Binding seen in cells or lysates may run through a third protein. Some binding calls cover weakened binding; strength is not graded here. For some assays here: Sequences can lack the tags named with a protein. Blank lines part the entries; values can stand above or below the binder they belong to.

By UniProt entry, the sequences of proteins in these tests, tags left out.
UniProt Q92993: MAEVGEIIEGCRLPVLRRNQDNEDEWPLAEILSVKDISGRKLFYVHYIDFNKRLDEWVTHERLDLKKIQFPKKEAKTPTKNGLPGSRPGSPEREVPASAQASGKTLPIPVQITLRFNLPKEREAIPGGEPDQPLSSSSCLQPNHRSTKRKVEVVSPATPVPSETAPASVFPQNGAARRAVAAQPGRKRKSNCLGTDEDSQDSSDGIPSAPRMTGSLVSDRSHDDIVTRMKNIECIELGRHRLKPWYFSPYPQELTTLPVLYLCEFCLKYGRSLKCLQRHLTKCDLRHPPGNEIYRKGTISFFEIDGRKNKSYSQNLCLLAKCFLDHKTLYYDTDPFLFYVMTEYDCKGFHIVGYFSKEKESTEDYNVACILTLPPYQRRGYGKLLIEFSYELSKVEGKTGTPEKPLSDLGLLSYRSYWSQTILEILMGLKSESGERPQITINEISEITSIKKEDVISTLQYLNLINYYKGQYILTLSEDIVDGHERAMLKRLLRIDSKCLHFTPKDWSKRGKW
UniProt Q92793: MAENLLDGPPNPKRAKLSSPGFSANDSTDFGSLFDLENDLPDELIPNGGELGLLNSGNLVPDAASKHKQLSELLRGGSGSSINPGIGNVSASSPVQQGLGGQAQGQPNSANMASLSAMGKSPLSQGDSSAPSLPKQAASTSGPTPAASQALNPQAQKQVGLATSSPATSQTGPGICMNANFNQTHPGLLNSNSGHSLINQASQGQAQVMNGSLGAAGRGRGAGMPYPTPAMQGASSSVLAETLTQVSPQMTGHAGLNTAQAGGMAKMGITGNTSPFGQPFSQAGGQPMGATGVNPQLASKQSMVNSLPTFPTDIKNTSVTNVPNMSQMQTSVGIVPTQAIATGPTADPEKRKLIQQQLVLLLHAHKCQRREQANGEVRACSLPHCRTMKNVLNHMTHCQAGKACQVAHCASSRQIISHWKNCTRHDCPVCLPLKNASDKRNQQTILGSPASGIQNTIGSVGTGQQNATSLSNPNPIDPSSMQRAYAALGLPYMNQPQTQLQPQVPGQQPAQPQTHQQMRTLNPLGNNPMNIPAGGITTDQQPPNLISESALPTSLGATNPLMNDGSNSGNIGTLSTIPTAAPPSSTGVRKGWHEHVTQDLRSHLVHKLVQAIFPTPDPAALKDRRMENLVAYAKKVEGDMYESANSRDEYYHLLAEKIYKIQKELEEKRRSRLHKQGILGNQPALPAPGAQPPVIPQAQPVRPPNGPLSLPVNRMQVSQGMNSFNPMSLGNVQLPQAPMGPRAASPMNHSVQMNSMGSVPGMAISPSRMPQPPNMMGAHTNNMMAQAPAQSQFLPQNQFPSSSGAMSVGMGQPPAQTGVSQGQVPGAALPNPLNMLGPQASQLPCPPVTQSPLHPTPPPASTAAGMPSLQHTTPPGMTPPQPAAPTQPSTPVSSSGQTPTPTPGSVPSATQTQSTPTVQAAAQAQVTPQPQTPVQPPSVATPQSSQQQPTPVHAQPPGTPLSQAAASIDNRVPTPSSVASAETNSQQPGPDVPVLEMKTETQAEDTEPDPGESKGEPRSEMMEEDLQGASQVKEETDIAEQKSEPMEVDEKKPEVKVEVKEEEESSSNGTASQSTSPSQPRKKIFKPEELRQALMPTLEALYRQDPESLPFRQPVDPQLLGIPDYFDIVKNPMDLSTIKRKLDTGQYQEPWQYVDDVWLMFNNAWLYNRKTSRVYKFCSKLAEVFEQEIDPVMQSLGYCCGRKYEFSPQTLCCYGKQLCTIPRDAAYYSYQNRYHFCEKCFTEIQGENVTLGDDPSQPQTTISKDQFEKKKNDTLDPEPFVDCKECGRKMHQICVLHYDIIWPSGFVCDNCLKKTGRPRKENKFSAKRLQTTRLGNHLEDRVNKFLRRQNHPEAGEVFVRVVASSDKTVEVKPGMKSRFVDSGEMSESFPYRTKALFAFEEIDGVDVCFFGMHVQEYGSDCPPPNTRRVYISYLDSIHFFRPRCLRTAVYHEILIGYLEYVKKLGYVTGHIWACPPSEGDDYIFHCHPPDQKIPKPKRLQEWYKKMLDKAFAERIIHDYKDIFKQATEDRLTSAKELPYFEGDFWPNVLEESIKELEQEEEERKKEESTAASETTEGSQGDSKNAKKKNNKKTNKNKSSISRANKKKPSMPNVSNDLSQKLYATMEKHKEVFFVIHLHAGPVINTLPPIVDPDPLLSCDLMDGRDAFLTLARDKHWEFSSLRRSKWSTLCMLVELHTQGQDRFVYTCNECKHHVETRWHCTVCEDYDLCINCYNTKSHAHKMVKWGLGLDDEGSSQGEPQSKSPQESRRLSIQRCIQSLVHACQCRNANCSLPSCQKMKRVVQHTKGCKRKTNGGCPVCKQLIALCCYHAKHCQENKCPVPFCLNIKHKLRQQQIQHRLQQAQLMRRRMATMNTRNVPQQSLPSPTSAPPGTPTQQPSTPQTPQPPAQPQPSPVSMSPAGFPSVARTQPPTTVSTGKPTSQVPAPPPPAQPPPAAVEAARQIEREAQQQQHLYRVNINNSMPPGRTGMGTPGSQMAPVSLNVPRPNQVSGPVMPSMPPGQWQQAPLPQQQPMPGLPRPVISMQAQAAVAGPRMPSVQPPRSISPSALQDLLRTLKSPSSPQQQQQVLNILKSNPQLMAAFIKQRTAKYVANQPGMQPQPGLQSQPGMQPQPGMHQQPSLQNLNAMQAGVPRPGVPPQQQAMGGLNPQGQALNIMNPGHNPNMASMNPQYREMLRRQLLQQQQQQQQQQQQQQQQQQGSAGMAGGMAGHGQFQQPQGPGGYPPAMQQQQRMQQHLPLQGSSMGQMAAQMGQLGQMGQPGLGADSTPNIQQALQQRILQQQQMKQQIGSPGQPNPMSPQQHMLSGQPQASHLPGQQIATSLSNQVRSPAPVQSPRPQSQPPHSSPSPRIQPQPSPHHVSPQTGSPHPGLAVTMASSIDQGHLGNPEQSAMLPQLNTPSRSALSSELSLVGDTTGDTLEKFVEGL
UniProt Q92830: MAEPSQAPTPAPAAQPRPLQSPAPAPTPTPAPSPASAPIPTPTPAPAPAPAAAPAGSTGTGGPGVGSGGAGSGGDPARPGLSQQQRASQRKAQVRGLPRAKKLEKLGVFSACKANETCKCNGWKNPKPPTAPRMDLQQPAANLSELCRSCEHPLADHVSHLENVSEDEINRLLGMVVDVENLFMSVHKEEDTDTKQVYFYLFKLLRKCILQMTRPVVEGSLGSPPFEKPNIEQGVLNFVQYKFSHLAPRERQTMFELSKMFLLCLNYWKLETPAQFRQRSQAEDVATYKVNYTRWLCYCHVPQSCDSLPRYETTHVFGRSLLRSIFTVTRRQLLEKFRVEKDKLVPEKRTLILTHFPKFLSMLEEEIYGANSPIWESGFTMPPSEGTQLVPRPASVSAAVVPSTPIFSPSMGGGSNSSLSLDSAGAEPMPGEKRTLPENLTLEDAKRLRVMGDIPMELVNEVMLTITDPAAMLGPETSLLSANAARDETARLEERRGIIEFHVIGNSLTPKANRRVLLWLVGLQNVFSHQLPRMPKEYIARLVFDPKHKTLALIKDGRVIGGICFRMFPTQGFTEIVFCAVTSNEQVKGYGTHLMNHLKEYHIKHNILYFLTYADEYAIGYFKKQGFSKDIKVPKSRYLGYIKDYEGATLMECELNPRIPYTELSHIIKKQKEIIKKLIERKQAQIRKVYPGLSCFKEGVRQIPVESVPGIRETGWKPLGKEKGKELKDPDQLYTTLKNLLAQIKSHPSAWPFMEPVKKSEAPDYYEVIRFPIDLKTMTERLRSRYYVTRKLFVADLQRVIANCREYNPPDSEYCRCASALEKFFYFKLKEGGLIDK
UniProt Q92831: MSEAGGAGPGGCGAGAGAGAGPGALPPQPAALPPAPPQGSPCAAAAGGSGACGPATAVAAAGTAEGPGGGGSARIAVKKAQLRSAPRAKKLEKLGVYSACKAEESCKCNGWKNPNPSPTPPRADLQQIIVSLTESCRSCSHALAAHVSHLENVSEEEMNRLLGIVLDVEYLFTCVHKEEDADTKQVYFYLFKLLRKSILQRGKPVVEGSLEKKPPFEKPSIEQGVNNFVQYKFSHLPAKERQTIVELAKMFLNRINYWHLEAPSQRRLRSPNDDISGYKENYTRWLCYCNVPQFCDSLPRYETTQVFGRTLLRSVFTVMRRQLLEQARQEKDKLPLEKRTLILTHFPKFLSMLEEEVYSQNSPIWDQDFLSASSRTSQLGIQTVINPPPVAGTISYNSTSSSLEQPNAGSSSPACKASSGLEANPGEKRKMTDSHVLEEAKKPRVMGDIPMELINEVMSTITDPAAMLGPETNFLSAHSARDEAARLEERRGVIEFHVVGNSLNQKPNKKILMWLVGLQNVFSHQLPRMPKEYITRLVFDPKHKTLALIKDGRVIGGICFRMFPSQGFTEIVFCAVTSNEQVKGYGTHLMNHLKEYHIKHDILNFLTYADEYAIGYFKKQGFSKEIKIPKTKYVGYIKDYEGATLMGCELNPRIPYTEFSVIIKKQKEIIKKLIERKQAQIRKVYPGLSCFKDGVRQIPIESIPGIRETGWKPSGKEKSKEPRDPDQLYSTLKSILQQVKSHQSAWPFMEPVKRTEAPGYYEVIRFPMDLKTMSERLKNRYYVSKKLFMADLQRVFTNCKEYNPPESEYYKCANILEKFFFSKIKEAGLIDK
UniProt Q93009: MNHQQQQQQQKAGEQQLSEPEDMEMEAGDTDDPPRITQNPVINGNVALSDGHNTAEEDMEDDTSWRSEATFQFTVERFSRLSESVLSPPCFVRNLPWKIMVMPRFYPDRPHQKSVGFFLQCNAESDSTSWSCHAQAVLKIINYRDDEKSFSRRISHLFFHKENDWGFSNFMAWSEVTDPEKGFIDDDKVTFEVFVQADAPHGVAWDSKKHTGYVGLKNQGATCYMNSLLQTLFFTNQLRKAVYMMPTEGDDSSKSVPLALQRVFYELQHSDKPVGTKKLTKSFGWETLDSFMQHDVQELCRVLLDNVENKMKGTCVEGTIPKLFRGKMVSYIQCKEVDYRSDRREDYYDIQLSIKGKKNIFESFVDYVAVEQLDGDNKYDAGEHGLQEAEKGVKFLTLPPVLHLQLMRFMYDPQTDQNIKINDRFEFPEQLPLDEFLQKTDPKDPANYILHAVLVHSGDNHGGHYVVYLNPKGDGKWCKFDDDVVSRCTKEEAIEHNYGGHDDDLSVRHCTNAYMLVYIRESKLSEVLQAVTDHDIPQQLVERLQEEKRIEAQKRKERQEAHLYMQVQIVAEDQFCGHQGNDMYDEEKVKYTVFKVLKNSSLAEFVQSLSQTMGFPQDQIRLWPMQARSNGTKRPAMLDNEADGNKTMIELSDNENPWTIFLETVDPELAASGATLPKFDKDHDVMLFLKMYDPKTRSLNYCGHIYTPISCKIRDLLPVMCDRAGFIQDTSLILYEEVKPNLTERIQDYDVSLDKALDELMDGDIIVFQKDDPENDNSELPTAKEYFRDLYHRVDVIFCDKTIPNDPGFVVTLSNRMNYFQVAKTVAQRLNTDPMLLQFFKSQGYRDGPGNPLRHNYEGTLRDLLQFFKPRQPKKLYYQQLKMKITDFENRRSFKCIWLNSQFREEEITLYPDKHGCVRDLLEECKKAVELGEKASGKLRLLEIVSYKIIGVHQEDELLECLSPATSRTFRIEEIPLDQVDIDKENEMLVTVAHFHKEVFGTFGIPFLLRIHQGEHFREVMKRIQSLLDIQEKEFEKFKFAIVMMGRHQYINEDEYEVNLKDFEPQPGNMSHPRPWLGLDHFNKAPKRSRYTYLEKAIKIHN

Experiments:
Flag-Tip60 = Flag-Tip60 (UniProt Q92993); experiment: co-IP; Myc-DACH1 co-expressed with Flag-tagged p300, GCN5, PCAF, CBP or Tip60 in HEK293T cells; IP with anti-Flag antibodies, immunoblot for Myc and Flag
Flag-p300 = Flag-p300 (UniProt Q09472); experiment: as above
Flag-CBP = Flag-CBP (UniProt Q92793); experiment: as above
Flag-GCN5 = Flag-GCN5 (UniProt Q92830); experiment: as above
Flag-PCAF = Flag-PCAF (UniProt Q92831); experiment: as above
HA-USP7-FL = HA-USP7-FL (UniProt Q93009); experiment: co-IP; HA-USP7 and Myc-DACH1 (or its K680 mutants) expressed in HEK293T cells (Fig. 6J: HEK293T and SW480 stably expressing HA-USP7); IP with anti-HA or anti-Myc, immunoblot
[1] = target: T1, endogenous DACH1 (human (endogenous in RKO, HCT8, SW480)) (UniProt Q9UI36); experiment: co-IP; endogenous proteins; RKO, HCT8 and SW480 cells immunoprecipitated with anti-DACH1 or anti-UHRF1
T1 sequence: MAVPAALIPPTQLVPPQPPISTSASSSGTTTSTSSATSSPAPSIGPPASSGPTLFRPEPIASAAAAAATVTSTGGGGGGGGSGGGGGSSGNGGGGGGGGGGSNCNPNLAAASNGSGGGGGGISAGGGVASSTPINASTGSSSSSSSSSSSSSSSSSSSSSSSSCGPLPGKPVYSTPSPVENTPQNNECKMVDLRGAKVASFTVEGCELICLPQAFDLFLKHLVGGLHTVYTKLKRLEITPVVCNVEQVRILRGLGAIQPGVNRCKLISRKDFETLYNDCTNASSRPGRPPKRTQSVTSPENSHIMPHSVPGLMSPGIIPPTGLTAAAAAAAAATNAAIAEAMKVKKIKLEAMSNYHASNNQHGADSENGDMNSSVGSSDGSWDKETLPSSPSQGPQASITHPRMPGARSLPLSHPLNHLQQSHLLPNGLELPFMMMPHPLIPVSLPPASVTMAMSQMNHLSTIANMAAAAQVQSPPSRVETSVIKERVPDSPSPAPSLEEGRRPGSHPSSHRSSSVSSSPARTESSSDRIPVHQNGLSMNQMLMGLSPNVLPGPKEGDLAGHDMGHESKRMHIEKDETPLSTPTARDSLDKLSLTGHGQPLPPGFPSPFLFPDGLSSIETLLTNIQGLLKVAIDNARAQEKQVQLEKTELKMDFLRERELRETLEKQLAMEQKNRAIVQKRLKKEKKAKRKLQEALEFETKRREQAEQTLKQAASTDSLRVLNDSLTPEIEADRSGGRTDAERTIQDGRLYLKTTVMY

binding (Flag-Tip60): no binding
binding (Flag-p300): no binding
binding (Flag-CBP): no binding
binding (Flag-GCN5): binds
binding (Flag-PCAF): no binding
binding (HA-USP7-FL): binds
B1: Myc-DACH1-FL (protein, UniProt Q9UI36 1-758)
chain: T1 sequence

binding (HA-USP7-FL): binds
B2: Myc-DACH1-K680Q (protein, UniProt Q9UI36 1-758)
chain: T1 sequence with K680Q

binding [1]: binds
B3: E3 ubiquitin-protein ligase UHRF1 (endogenous) (enzyme, UniProt Q96T88 1-793)
chain: MWIQVRTMDGRQTHTVDSLSRLTKVEELRRKIQELFHVEPGLQRLFYRGKQMEDGHTLFDYEVRLNDTIQLLVRQSLVLPHSTKERDSELSDTDSGCCLGQSESDKSSTHGEAAAETDSRPADEDMWDETELGLYKVNEYVDARDTNMGAWFEAQVVRVTRKAPSRDEPCSSTSRPALEEDVIYHVKYDDYPENGVVQMNSRDVRARARTIIKWQDLEVGQVVMLNYNPDNPKERGFWYDAEISRKRETRTARELYANVVLGDDSLNDCRIIFVDEVFKIERPGEGSPMVDNPMRRKSGPSCKHCKDDVNRLCRVCACHLCGGRQDPDKQLMCDECDMAFHIYCLDPPLSSVPSEDEWYCPECRNDASEVVLAGERLRESKKKAKMASATSSSQRDWGKGMACVGRTKECTIVPSNHYGPIPGIPVGTMWRFRVQVSESGVHRPHVAGIHGRSNDGAYSLVLAGGYEDDVDHGNFFTYTGSGGRDLSGNKRTAEQSCDQKLTNTNRALALNCFAPINDQEGAEAKDWRSGKPVRVVRNVKGGKNSKYAPAEGNRYDGIYKVVKYWPEKGKSGFLVWRYLLRRDDDEPGPWTKEGKDRIKKLGLTMQYPEGYLEALANREREKENSKREEEEQQEGGFASPRTGKGKWKRKSAGGGPSRAGSPRRTSKKTKVEPYSLTAQQSSLIREDKSNAKLWNEVLASLKDRPASGSPFQLFLSKVEETFQCICCQELVFRPITTVCQHNVCKDCLDRSFRAQVFSCPACRYDLGRSYAMQVNQPLQTVLNQLFPGYGNGR
